According to paper PMC4336329 (PLoS ONE, 2015):
The campaign covered roughly 310,000 compounds. About 2,200 (0.71%) showed an effect of 50% or more. Effects have a minus sign here. The list shows a part of the results.

Each compound was assayed against human ether-à-go-go-related gene (hERG) potassium channel (human, UniProt Q12809) (assay: primary screen, population patch clamp on CHO cells stably expressing hERG).
Sequence of human ether-à-go-go-related gene (hERG) potassium channel (Q12809 whole entry, looked up): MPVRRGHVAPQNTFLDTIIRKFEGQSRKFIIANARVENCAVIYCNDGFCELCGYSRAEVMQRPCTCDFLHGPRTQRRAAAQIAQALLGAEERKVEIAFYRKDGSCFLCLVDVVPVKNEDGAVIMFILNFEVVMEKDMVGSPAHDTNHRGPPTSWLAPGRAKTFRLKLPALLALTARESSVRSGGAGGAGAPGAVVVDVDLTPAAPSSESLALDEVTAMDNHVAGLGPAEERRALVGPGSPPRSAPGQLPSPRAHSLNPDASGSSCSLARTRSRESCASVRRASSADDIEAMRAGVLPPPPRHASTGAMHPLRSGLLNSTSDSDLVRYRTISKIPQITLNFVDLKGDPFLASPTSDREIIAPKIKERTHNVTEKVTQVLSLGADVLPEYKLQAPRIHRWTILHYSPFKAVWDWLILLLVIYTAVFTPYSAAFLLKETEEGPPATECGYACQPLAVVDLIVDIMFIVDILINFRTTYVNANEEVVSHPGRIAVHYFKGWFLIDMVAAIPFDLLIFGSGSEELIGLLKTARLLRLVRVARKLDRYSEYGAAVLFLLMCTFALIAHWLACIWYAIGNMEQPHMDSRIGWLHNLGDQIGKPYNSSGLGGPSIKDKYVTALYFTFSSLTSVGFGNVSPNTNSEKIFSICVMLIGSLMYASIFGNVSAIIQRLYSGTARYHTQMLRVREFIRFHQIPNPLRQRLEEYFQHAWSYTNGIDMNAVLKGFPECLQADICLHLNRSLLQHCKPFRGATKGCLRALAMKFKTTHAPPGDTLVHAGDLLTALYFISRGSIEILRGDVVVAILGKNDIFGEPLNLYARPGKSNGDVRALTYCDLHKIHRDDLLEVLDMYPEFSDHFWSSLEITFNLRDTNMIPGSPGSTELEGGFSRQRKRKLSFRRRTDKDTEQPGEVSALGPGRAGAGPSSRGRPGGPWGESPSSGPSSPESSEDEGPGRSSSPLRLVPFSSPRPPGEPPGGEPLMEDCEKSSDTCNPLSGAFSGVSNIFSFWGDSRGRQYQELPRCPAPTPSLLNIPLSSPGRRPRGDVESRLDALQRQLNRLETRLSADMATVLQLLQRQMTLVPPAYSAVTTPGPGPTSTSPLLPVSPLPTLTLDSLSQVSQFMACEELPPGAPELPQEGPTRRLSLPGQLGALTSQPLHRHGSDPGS

Row | SMILES | hERG current change (%, negative = inhibition) at 1uM [%]
1 | COc1ccc(Nc2nc(N)c(C(=O)c3ccc(OC)cc3)s2)cc1 | -5.28
2 | COc1cccc(-c2ccc(=O)n(CC(=O)NCCN3CCOCC3)n2)c1 | -8.11
3 | CC(C)C1S/C(=N/N=C/c2cccs2)NC1=O (stereo not shown) | 12.5
4 | CC(CCO)Nc1nc2c(c(=O)n(C)c(=O)n2C)n1Cc1cccc(Br)c1 (stereo not shown) | 13
5 | CCOc1ccc(C2CC(c3cccc(OC)c3OC)n3nnnc3N2)cc1Cl (stereo not shown) | 10.5
6 | COc1ccc(Cl)cc1NC(=O)CSc1nc(Nc2ccccc2)nc(N2CCOCC2)n1 | 10
7 | CN(CC(=O)Nc1ccc2c(c1)CCC2)CC(=O)Nc1ccccc1Br | 7.16
8 | NC(=O)C1CCN(C(=O)C2(NC(=O)Nc3cccc(F)c3)CCCCC2)CC1 | 14.7
9 | CCCc1nc2sc3c(=O)n(N)cnc3c2c2c1COC(C)(C)C2 | 7.5
10 | CCOC(=O)C1C2NC(=O)N(Cc3ccccc3)C1(C)Oc1c(OC)cccc12 (stereo not shown) | 11.5
11 | Cc1ccccc1Oc1nc(-c2ccccn2)nc2ccccc12 | 2.99
12 | O=C(CN1CCCCC1)NC(=O)NC1CCCC1 | 9.34
13 | CC(C)CC1(C)NC(=O)N(Cc2cc([N+](=O)[O-])cc3c2OCOC3)C1=O (stereo not shown) | 9.47
14 | CC1CCN(CCCNC(=O)c2ccc3c(=O)n(CCc4ccccc4)c(=O)[nH]c3c2)CC1 | 10.6
15 | Cc1nc2ccccc2c2oc(C(=O)NCc3ccccn3)cc12 | -9.12
16 | Cc1ccc(NS(=O)(=O)N(C)C)cc1 | 9.86
17 | Cc1cc(Cl)nc(Cl)c1C(=O)NC(=O)NCCC(C)C | 2.47
18 | CCOC(=O)N1CCC(NCCNC(=O)c2cccs2)CC1 | 5.13
19 | Cc1cccc(C(=O)NC2CCCCCCC2)c1 | 10.2
20 | Cc1ccsc1C1C(C#N)=C(N)OC2=C1C(=O)CCC2 (stereo not shown) | 10.5
21 | CCN(CC)CCn1c(=S)[nH]c2ccc(Br)cc2c1=O | -27.2
22 | CCOC(=O)c1cccc(NC(=O)c2c(NCc3ccccc3)[nH]c(=O)[nH]c2=O)c1 | 7.11
23 | CCOC(=O)NCCc1ccc(OC)cc1 | 12.3

Row | SMILES | hERG current change (%, negative = inhibition) at 1uM [%]
24 | O=C(NC1CCCCC1)C(c1ccco1)N(Cc1cccnc1)C(=O)C1COc2ccccc2O1 (stereo not shown) | 5.59
25 | COc1ccc(-n2nnnc2SCC(=O)Nc2ccc(OC)cc2OC)cc1 | 12.8
26 | COc1ccccc1S(=O)(=O)Cc1ccc(C(=O)NCCN2CCCC2)o1 | 14.2
27 | CC1Sc2ccc(S(=O)(=O)CCC(=O)NC3CCCC(C)C3C)cc2NC1=O (stereo not shown) | 22.2
28 | CCNC(=S)Nc1nc2c(cc1C(=O)OCC)CCCC2 | 13.1
29 | Cc1ccc(NS(=O)(=O)c2ccc3c(c2)CC(=O)N3)cc1C | 14
30 | CC(C)C(NS(=O)(=O)c1cccs1)C(=O)NCCCN1CCCCCC1 (stereo not shown) | 10.4
31 | Cc1cccc2cc(CNCc3ccccc3)c(Cl)nc12 | 12.5
32 | C[C@H]1CN=C(N(C)C)N1CCC1CCCCC1 | 13.6
33 | COc1ccc(CCN=C(N)NS(=O)(=O)c2cccs2)cc1OC | 10.8
34 | O=C(O)C1=NN(c2ccccc2)C(=O)CC1 | 16.1
35 | COCCCNc1nc2c(c(=O)n(Cc3ccc(Cl)cc3)c(=O)n2C)n1C | 6
36 | CCOc1ccc2nc(NC3=NC(c4ccc(OC)cc4)CC(=O)N3)nc(C)c2c1 (stereo not shown) | 6.72
37 | Cn1cc(C(=O)Nc2ccc(C#N)cc2)c2ccccc2c1=O | 10.7
38 | Cc1cc(NC(=O)Cn2c(=O)oc3ccc(Cl)cc32)no1 | 13.5
39 | Cc1cc(Cl)cc(C)c1OCCCCN1CCOCC1 | -5.5
40 | CC(C)c1cccc(C(C)C)c1NC(=S)Nc1cccc(Cl)c1 | 4.68
41 | COc1ccc(Oc2ccc(C(F)(F)F)cc2NC(=O)c2ccc(OC)cc2)cc1 | 13.1
42 | Cc1c(Cl)cccc1NC(=O)CNC(=O)c1ccc(F)cc1 | 18
43 | CCOC(=O)CSC(=S)NC(=O)c1ccc(OC)cc1 | 20.3
44 | Cc1ccc(S(=O)(=O)N2CCCC2C(=O)NCCc2nc3ccccc3[nH]2)cc1 (stereo not shown) | 5.84
45 | O=C(NCc1ccccc1)c1ccc2nc(-c3ccco3)c(-c3ccco3)nc2c1 | 2.51
46 | CN(Cc1ccccc1)c1ncnc2sccc12 | 7.75

Row | SMILES | hERG current change (%, negative = inhibition) at 1uM [%]
47 | CCOC(=O)C1=C(C)Nc2ccccc2N=C1NC(=O)/C=C/c1ccc(OC)cc1OC | -3.31
48 | O=C1C(=O)N(CC2CCCO2)C(c2ccccc2[N+](=O)[O-])/C1=C(/O)c1ccccc1 (stereo not shown) | 10.2
49 | COc1cc(CN2CCN(S(=O)(=O)c3ccc(F)cc3)CC2)cc(OC)c1OC.O=C(O)C(=O)O | 6.91
50 | Cc1ccccc1NC(=O)C(=O)NCCc1c[nH]c2ccccc12 | 4.74
51 | CC1(C)OC(=O)C(=CSc2ccc(C(C)(C)C)cc2)C(=O)O1 | 10.7
52 | Cn1ncc(N=Cc2c(O)ccc3ccccc23)c1C(=O)N1CCOCC1 | 8.07
53 | O=C(NCCCN1CCOCC1)c1ccc2c(c1)N(Cc1ccccc1)C(=O)c1ccccc1S2=O (stereo not shown) | 9.92
54 | O=C(N/N=C/c1c(O)n(C2CCCCC2)c(=S)[nH]c1=O)c1ccccc1O | 12.7
55 | Cc1cc2ncn(CS(C)(=O)=O)c2cc1C | 16.2
56 | O=C(O)c1ccccc1-c1nc2ccccc2n1-c1ccccc1 | 12
57 | O=C(O)C1C(c2ccccc2)C(C(=O)OCCCO)C1c1ccccc1 (stereo not shown) | 2.06
58 | CCOC(=O)N1CCC(c2nc(C)sc2C(=O)O)CC1 | 17.8
59 | COC(C/C=C/[C@@H](O)[C@H](C)OCc1ccccc1)OC | 14.4
60 | COc1ccc(OCC(=O)Nc2c(Cl)ccc3nsnc23)cc1 | 0.685
61 | CCOC(=O)C1(CCOc2ccccc2)CCN(Cc2cnc(C)s2)CC1 | -18.8
62 | CC(C)(C)CN1CCNC(=O)C1CC(=O)NCCN1CCCc2ccccc21 (stereo not shown) | 7.93
63 | O=C(NNS(=O)(=O)c1ccc([N+](=O)[O-])cc1)c1ccc([N+](=O)[O-])cc1 | 17
64 | C/C(=N\N1C(=O)c2ccccc2NC1c1ccco1)c1ccccc1O (stereo not shown) | 21.9
65 | CC(C)Oc1cccc(C(=O)C2CCCN(C(=O)c3noc4c3CCCC4)C2)c1 (stereo not shown) | -10.9
66 | C[n+]1ccccc1/C=C/c1cc(Br)ccc1O.[I-] | 12.9
67 | Cc1cc(Cl)c2oc(C(=O)NCCC3CCCCO3)c(C)c2c1 (stereo not shown) | 14.1
68 | O=C(OC(C(=O)Nc1ccc([N+](=O)[O-])cc1Br)c1ccccc1)c1ccccc1 (stereo not shown) | 0.0853
69 | O=S(Cc1ccc(Br)cc1)Cc1nnc(SCc2ccc(Cl)cc2)n1-c1ccccc1 (stereo not shown) | -0.797

Row | SMILES | hERG current change (%, negative = inhibition) at 1uM [%]
70 | Cc1ccc(S(=O)(=O)N(C)C)cc1NC(=O)COC(=O)c1ccc(Cl)cc1 | 9.01
71 | CCOCCCn1c(=S)[nH]c2cc(C(=O)NCCOC)ccc2c1=O | 11.3
72 | CC1Oc2ccccc2OC1(O)c1ccc2ccccc2n1 (stereo not shown) | 2.17
73 | COc1ccccc1-c1nnc(NC(=O)c2ccc3c(c2)OCO3)s1 | 4.67
74 | Cc1ccc(Cn2c(SCC(=O)N/N=C/c3ccc(C)o3)nc3ccccc32)cc1 | -13
75 | COc1ccc(N2CC(C(=O)N(C)CC(=O)Nc3ccc(Cl)c(C(F)(F)F)c3)CC2=O)c(OC)c1 (stereo not shown) | 4.92
76 | CC1CCCCN1C(=O)CSc1nc2cc3c(cc2c(=O)n1Cc1ccc2c(c1)OCO2)OCO3 (stereo not shown) | 5.74
77 | O=Cc1ccc(Oc2nc(Cl)ncc2F)cc1 | 15.2
78 | CCOC(=O)c1cc2sccc2n1CC(=O)N1CCN(C(=O)c2ccco2)CC1 | -15.9
79 | O=C(CCc1nc(-c2ccccc2Cl)no1)NCCc1ccccc1 | 7.62
80 | CC1(C(=O)Nc2ccc3ccccc3c2)CC1(Br)Br (stereo not shown) | 6.42
81 | c1ccc(C(c2ccccc2)c2ccn[nH]2)cc1 | 10.5
82 | CC1N(O)C(C)(C)C(c2ccccc2)=[N+]1[O-] (stereo not shown) | 8.85
83 | Clc1ccc(-c2cccs2)nn1 | 7.52
84 | CCOC(=O)C(NC(=O)NCc1ccc(OC)cc1)(OCC)C(F)(F)F (stereo not shown) | 13.6
85 | COc1ccc(-c2cn3cc(C)ccc3n2)cc1OC.Cl | 5.46
86 | CCN(CC)CCn1c(=S)[nH]c2ncccc2c1=O | 2.09
87 | O=C(NC(NC(=S)Nc1ccccc1Cl)C(Cl)(Cl)Cl)c1cccc(Cl)c1 (stereo not shown) | 9.62
88 | CC(=O)c1cccc(NC(=O)c2cc(-c3cccs3)on2)c1 | 18.3
89 | Cn1c(CS(=O)Cc2c(Cl)cccc2Cl)nnc1SCc1c(Cl)cccc1Cl (stereo not shown) | -11.4
90 | CCn1c(=N)c(S(=O)(=O)c2ccccc2)cc2c(=O)n3ccccc3nc21 | 0.819
91 | CCOc1ccc(CC(=O)N2CCN=C2SC)cc1 | 6.65
